Test results published in article PMC12820563, “FoxP3 forms a head-to-head dimer in vivo and stabilizes its multimerization on adjacent microsatellites”.
This is one part of the list.

biological target: T1, MBP-FoxP1dN (Mus musculus, UniProt P58462 326-579); experiment: PD-seq (MBP pull-down with sequencing); 20 mM Tris-HCl pH 7.5, 100 mM NaCl, 1.5 mM MgCl2, 0.4 uM protein, 0.1 uM dsDNA library, 30 min, room temperature, amylose pull-down; high values mean tight binding; conditions: protein: recombinant; tags: His6-MBP; chain copies: 2; dsDNA, one strand shown
T1 sequence: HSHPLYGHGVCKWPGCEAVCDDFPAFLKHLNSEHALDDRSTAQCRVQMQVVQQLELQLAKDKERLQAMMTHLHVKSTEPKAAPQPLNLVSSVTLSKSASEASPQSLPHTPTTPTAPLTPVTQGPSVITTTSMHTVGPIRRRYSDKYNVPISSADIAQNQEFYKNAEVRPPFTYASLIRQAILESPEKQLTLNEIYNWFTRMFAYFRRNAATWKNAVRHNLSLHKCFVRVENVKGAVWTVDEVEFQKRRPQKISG
Procedure, shortened: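 The N-terminus-lacking fragment of mouse FoxP3 or FoxP1 carried a His6-MBP tag and was expressed in E. coli. At 0.4 µM it was incubated with 0.1 µM Klenow-filled degenerate double-stranded DNA library for 30 min at room temperature in Tris pH 7.5 buffer with NaCl and MgCl2, and complexes were caught on amylose resin, washed three times, released with proteinase K, PCR-barcoded and Illumina-sequenced. Binding is reads-per-million enrichment of pull-down over input with replicates pooled.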

Sequence | binding signal
GATGATTGTTCTCCCAGCTGATGAATTACCACCATCGAGTAAACAAATTTTCCTAATCTTTCTGTTCAAGCGCCATCTAC | 1.11 RPM ratio (pull-down/input)
GATGATTGTTCTCCCAGCTGATGAATTTCCGCTTTCGAGTAAACAAATTTTCCTAATCTTTCTGTTCAAGCGCCATCTAC | 0.883 RPM ratio (pull-down/input)
GATGATTGTTCTCCCAGCTGATGAATTGGGCTATTCGAGTAAACAAATTTTCCTAATCTTTCTGTTCAAGCGCCATCTAC | 0.934 RPM ratio (pull-down/input)
GATGATTGTTCTCCCAGCTGATGAATTACTGCACTCGAGTAAACAAATTTTCCTAATCTTTCTGTTCAAGCGCCATCTAC | 1.06 RPM ratio (pull-down/input)
GATGATTGTTCTCCCAGCTGATGAATTACAAGCTTCGAGTAAACAAATTTTCCTAATCTTTCTGTTCAAGCGCCATCTAC | 1.15 RPM ratio (pull-down/input)
GATGATTGTTCTCCCAGCTGATGAATTACAGGTCTCGAGTAAACAAATTTTCCTAATCTTTCTGTTCAAGCGCCATCTAC | 0.983 RPM ratio (pull-down/input)
GATGATTGTTCTCCCAGCTGATGAATTCTTTCAATCGAGTAAACAAATTTTCCTAATCTTTCTGTTCAAGCGCCATCTAC | 0.972 RPM ratio (pull-down/input)
GATGATTGTTCTCCCAGCTGATGAATTGCATGCATCGAGTAAACAAATTTTCCTAATCTTTCTGTTCAAGCGCCATCTAC | 1.52 RPM ratio (pull-down/input)
GATGATTGTTCTCCCAGCTGATGAATTCCCCTTATCGAGTAAACAAATTTTCCTAATCTTTCTGTTCAAGCGCCATCTAC | 0.861 RPM ratio (pull-down/input)
GATGATTGTTCTCCCAGCTGATGAATTCTAAGTCTCGAGTAAACAAATTTTCCTAATCTTTCTGTTCAAGCGCCATCTAC | 0.892 RPM ratio (pull-down/input)
GATGATTGTTCTCCCAGCTGATGAATTCAGATCTTCGAGTAAACAAATTTTCCTAATCTTTCTGTTCAAGCGCCATCTAC | 0.784 RPM ratio (pull-down/input)
GATGATTGTTCTCCCAGCTGATGAATTGATGTAATCGAGTAAACAAATTTTCCTAATCTTTCTGTTCAAGCGCCATCTAC | 1.63 RPM ratio (pull-down/input)
GATGATTGTTCTCCCAGCTGATGAATTCGGTGATTCGAGTAAACAAATTTTCCTAATCTTTCTGTTCAAGCGCCATCTAC | 0.938 RPM ratio (pull-down/input)
GATGATTGTTCTCCCAGCTGATGAATTTGTTACATCGAGTAAACAAATTTTCCTAATCTTTCTGTTCAAGCGCCATCTAC | 1.39 RPM ratio (pull-down/input)
GATGATTGTTCTCCCAGCTGATGAATTAATGACCTCGAGTAAACAAATTTTCCTAATCTTTCTGTTCAAGCGCCATCTAC | 0.901 RPM ratio (pull-down/input)
GATGATTGTTCTCCCAGCTGATGAATTGATGCTGTCGAGTAAACAAATTTTCCTAATCTTTCTGTTCAAGCGCCATCTAC | 1.4 RPM ratio (pull-down/input)
GATGATTGTTCTCCCAGCTGATGAATTACCGGAATCGAGTAAACAAATTTTCCTAATCTTTCTGTTCAAGCGCCATCTAC | 1.02 RPM ratio (pull-down/input)
GATGATTGTTCTCCCAGCTGATGAATTGTATCAGTCGAGTAAACAAATTTTCCTAATCTTTCTGTTCAAGCGCCATCTAC | 1.2 RPM ratio (pull-down/input)
GATGATTGTTCTCCCAGCTGATGAATTTCGATCCTCGAGTAAACAAATTTTCCTAATCTTTCTGTTCAAGCGCCATCTAC | 0.75 RPM ratio (pull-down/input)
GATGATTGTTCTCCCAGCTGATGAATTGTTAAAGTCGAGTAAACAAATTTTCCTAATCTTTCTGTTCAAGCGCCATCTAC | 1.2 RPM ratio (pull-down/input)
GATGATTGTTCTCCCAGCTGATGAATTCGTCCTATCGAGTAAACAAATTTTCCTAATCTTTCTGTTCAAGCGCCATCTAC | 0.835 RPM ratio (pull-down/input)

Sequence | binding signal
GATGATTGTTCTCCCAGCTGATGAATTAGCACTCTCGAGTAAACAAATTTTCCTAATCTTTCTGTTCAAGCGCCATCTAC | 0.939 RPM ratio (pull-down/input)
GATGATTGTTCTCCCAGCTGATGAATTACGCGTGTCGAGTAAACAAATTTTCCTAATCTTTCTGTTCAAGCGCCATCTAC | 1.05 RPM ratio (pull-down/input)
GATGATTGTTCTCCCAGCTGATGAATTTCTGCTATCGAGTAAACAAATTTTCCTAATCTTTCTGTTCAAGCGCCATCTAC | 0.977 RPM ratio (pull-down/input)
GATGATTGTTCTCCCAGCTGATGAATTAGCAGACTCGAGTAAACAAATTTTCCTAATCTTTCTGTTCAAGCGCCATCTAC | 0.878 RPM ratio (pull-down/input)
GATGATTGTTCTCCCAGCTGATGAATTGATCACGTCGAGTAAACAAATTTTCCTAATCTTTCTGTTCAAGCGCCATCTAC | 1.01 RPM ratio (pull-down/input)
GATGATTGTTCTCCCAGCTGATGAATTGTACTTATCGAGTAAACAAATTTTCCTAATCTTTCTGTTCAAGCGCCATCTAC | 1.12 RPM ratio (pull-down/input)
GATGATTGTTCTCCCAGCTGATGAATTCACTGCCTCGAGTAAACAAATTTTCCTAATCTTTCTGTTCAAGCGCCATCTAC | 0.84 RPM ratio (pull-down/input)
GATGATTGTTCTCCCAGCTGATGAATTCAGACGGTCGAGTAAACAAATTTTCCTAATCTTTCTGTTCAAGCGCCATCTAC | 0.766 RPM ratio (pull-down/input)
GATGATTGTTCTCCCAGCTGATGAATTTTCGATCTCGAGTAAACAAATTTTCCTAATCTTTCTGTTCAAGCGCCATCTAC | 0.923 RPM ratio (pull-down/input)
GATGATTGTTCTCCCAGCTGATGAATTGCCATTATCGAGTAAACAAATTTTCCTAATCTTTCTGTTCAAGCGCCATCTAC | 1.16 RPM ratio (pull-down/input)
GATGATTGTTCTCCCAGCTGATGAATTATTTACCTCGAGTAAACAAATTTTCCTAATCTTTCTGTTCAAGCGCCATCTAC | 1.86 RPM ratio (pull-down/input)
GATGATTGTTCTCCCAGCTGATGAATTGTAATGATCGAGTAAACAAATTTTCCTAATCTTTCTGTTCAAGCGCCATCTAC | 1.13 RPM ratio (pull-down/input)
GATGATTGTTCTCCCAGCTGATGAATTTCAAACCTCGAGTAAACAAATTTTCCTAATCTTTCTGTTCAAGCGCCATCTAC | 0.785 RPM ratio (pull-down/input)
GATGATTGTTCTCCCAGCTGATGAATTGTGTCCTTCGAGTAAACAAATTTTCCTAATCTTTCTGTTCAAGCGCCATCTAC | 1.21 RPM ratio (pull-down/input)
GATGATTGTTCTCCCAGCTGATGAATTCCCTGTGTCGAGTAAACAAATTTTCCTAATCTTTCTGTTCAAGCGCCATCTAC | 0.851 RPM ratio (pull-down/input)
GATGATTGTTCTCCCAGCTGATGAATTTCCACTTTCGAGTAAACAAATTTTCCTAATCTTTCTGTTCAAGCGCCATCTAC | 0.875 RPM ratio (pull-down/input)
GATGATTGTTCTCCCAGCTGATGAATTAAATATGTCGAGTAAACAAATTTTCCTAATCTTTCTGTTCAAGCGCCATCTAC | 1.07 RPM ratio (pull-down/input)
GATGATTGTTCTCCCAGCTGATGAATTGAGAAGGTCGAGTAAACAAATTTTCCTAATCTTTCTGTTCAAGCGCCATCTAC | 0.768 RPM ratio (pull-down/input)
GATGATTGTTCTCCCAGCTGATGAATTTCGTTGGTCGAGTAAACAAATTTTCCTAATCTTTCTGTTCAAGCGCCATCTAC | 0.899 RPM ratio (pull-down/input)
GATGATTGTTCTCCCAGCTGATGAATTATCGGCATCGAGTAAACAAATTTTCCTAATCTTTCTGTTCAAGCGCCATCTAC | 1.02 RPM ratio (pull-down/input)
GATGATTGTTCTCCCAGCTGATGAATTGACCGATTCGAGTAAACAAATTTTCCTAATCTTTCTGTTCAAGCGCCATCTAC | 0.987 RPM ratio (pull-down/input)

Sequence | binding signal
GATGATTGTTCTCCCAGCTGATGAATTGGTAAGTTCGAGTAAACAAATTTTCCTAATCTTTCTGTTCAAGCGCCATCTAC | 0.98 RPM ratio (pull-down/input)
GATGATTGTTCTCCCAGCTGATGAATTGTGAAGGTCGAGTAAACAAATTTTCCTAATCTTTCTGTTCAAGCGCCATCTAC | 0.931 RPM ratio (pull-down/input)
GATGATTGTTCTCCCAGCTGATGAATTGAATCCTTCGAGTAAACAAATTTTCCTAATCTTTCTGTTCAAGCGCCATCTAC | 0.865 RPM ratio (pull-down/input)
GATGATTGTTCTCCCAGCTGATGAATTATAGAGCTCGAGTAAACAAATTTTCCTAATCTTTCTGTTCAAGCGCCATCTAC | 0.804 RPM ratio (pull-down/input)
GATGATTGTTCTCCCAGCTGATGAATTCCTTACCTCGAGTAAACAAATTTTCCTAATCTTTCTGTTCAAGCGCCATCTAC | 0.756 RPM ratio (pull-down/input)
GATGATTGTTCTCCCAGCTGATGAATTTATGGTGTCGAGTAAACAAATTTTCCTAATCTTTCTGTTCAAGCGCCATCTAC | 1.15 RPM ratio (pull-down/input)
GATGATTGTTCTCCCAGCTGATGAATTATGTAGGTCGAGTAAACAAATTTTCCTAATCTTTCTGTTCAAGCGCCATCTAC | 1.01 RPM ratio (pull-down/input)
GATGATTGTTCTCCCAGCTGATGAATTGTGACAGTCGAGTAAACAAATTTTCCTAATCTTTCTGTTCAAGCGCCATCTAC | 1.07 RPM ratio (pull-down/input)
GATGATTGTTCTCCCAGCTGATGAATTTTCTCACTCGAGTAAACAAATTTTCCTAATCTTTCTGTTCAAGCGCCATCTAC | 0.952 RPM ratio (pull-down/input)
GATGATTGTTCTCCCAGCTGATGAATTCCGGCTGTCGAGTAAACAAATTTTCCTAATCTTTCTGTTCAAGCGCCATCTAC | 0.761 RPM ratio (pull-down/input)
GATGATTGTTCTCCCAGCTGATGAATTGTCCTCCTCGAGTAAACAAATTTTCCTAATCTTTCTGTTCAAGCGCCATCTAC | 1.03 RPM ratio (pull-down/input)
GATGATTGTTCTCCCAGCTGATGAATTGATGTTGTCGAGTAAACAAATTTTCCTAATCTTTCTGTTCAAGCGCCATCTAC | 2.52 RPM ratio (pull-down/input)
GATGATTGTTCTCCCAGCTGATGAATTACATCGGTCGAGTAAACAAATTTTCCTAATCTTTCTGTTCAAGCGCCATCTAC | 0.978 RPM ratio (pull-down/input)
GATGATTGTTCTCCCAGCTGATGAATTGACCTTCTCGAGTAAACAAATTTTCCTAATCTTTCTGTTCAAGCGCCATCTAC | 0.921 RPM ratio (pull-down/input)
GATGATTGTTCTCCCAGCTGATGAATTGGCCGGGTCGAGTAAACAAATTTTCCTAATCTTTCTGTTCAAGCGCCATCTAC | 0.665 RPM ratio (pull-down/input)
GATGATTGTTCTCCCAGCTGATGAATTAGCCAAATCGAGTAAACAAATTTTCCTAATCTTTCTGTTCAAGCGCCATCTAC | 1.11 RPM ratio (pull-down/input)
GATGATTGTTCTCCCAGCTGATGAATTCGGTGACTCGAGTAAACAAATTTTCCTAATCTTTCTGTTCAAGCGCCATCTAC | 0.83 RPM ratio (pull-down/input)
GATGATTGTTCTCCCAGCTGATGAATTAAGAATCTCGAGTAAACAAATTTTCCTAATCTTTCTGTTCAAGCGCCATCTAC | 0.823 RPM ratio (pull-down/input)
GATGATTGTTCTCCCAGCTGATGAATTGGCCTTTTCGAGTAAACAAATTTTCCTAATCTTTCTGTTCAAGCGCCATCTAC | 0.882 RPM ratio (pull-down/input)
GATGATTGTTCTCCCAGCTGATGAATTGACCTCTTCGAGTAAACAAATTTTCCTAATCTTTCTGTTCAAGCGCCATCTAC | 0.884 RPM ratio (pull-down/input)
GATGATTGTTCTCCCAGCTGATGAATTCAGTTCCTCGAGTAAACAAATTTTCCTAATCTTTCTGTTCAAGCGCCATCTAC | 0.82 RPM ratio (pull-down/input)
